# No constants are given. Whether binding was seen depends on the method and setting. In cells and extracts the contact can be indirect. Some entries that bind do so weakly or less than the wild type.
# The chains behind the UniProt entries cited, without tags or fusion partners. Where a name states a change or a piece, a line headed by the entry shows the natural chain unless it says otherwise.
# UniProt Q9Y5B9: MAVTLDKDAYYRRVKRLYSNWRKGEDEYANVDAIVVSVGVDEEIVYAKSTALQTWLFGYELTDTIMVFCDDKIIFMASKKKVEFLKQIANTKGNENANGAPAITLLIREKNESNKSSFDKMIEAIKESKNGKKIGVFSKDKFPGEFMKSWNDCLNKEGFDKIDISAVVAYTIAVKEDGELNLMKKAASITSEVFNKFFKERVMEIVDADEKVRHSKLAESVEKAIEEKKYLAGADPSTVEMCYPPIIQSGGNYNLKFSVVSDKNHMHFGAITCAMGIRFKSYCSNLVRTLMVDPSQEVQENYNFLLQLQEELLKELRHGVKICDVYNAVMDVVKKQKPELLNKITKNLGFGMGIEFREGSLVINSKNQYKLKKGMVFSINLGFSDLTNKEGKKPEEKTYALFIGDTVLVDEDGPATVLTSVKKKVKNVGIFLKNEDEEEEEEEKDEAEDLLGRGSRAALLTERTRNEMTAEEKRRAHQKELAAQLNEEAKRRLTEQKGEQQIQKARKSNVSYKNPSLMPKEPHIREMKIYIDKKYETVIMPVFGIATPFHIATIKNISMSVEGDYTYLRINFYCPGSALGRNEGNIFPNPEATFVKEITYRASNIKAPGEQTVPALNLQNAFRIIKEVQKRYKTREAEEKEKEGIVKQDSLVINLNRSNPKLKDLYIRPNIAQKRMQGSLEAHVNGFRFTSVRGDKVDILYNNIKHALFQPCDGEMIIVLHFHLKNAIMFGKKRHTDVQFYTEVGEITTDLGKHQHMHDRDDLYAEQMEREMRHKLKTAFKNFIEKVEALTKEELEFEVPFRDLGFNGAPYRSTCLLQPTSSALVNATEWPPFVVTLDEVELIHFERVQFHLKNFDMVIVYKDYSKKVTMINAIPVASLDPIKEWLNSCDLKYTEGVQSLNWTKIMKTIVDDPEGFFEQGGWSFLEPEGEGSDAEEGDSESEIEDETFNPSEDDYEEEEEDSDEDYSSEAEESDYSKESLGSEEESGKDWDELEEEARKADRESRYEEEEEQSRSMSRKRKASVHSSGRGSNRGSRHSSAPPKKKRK
# UniProt Q08945: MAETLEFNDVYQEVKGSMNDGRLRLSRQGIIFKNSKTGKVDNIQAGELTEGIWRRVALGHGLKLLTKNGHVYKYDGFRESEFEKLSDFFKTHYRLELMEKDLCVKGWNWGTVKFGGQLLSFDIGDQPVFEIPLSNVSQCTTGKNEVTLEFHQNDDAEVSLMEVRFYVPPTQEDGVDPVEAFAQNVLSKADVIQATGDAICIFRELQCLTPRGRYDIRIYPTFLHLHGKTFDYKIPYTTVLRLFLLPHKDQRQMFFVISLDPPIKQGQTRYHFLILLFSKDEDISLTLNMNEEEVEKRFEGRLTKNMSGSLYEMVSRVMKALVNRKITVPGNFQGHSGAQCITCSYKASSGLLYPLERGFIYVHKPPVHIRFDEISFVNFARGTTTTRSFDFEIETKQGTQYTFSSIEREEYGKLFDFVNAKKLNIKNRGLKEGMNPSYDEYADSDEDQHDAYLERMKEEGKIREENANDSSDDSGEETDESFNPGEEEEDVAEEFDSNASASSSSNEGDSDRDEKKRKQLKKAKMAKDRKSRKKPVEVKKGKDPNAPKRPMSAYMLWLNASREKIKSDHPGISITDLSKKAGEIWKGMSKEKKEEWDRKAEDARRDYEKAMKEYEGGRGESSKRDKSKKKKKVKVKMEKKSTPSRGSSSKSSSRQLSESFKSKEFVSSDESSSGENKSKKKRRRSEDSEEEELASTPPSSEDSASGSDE
# UniProt P14618: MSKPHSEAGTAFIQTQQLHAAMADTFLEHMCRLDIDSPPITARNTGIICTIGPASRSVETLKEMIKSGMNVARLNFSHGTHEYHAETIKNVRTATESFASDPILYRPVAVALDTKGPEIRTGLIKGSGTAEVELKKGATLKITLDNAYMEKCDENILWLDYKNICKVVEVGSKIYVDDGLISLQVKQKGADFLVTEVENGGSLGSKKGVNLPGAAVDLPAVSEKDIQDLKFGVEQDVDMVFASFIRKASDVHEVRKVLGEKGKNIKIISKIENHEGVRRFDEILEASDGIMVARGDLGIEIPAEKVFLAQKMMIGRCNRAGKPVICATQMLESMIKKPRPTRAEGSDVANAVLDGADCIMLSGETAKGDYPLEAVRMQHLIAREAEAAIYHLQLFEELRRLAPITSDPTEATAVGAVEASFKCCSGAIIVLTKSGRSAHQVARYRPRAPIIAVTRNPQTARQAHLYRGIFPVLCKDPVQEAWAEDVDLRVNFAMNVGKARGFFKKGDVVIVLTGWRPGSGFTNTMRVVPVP
# UniProt P31749: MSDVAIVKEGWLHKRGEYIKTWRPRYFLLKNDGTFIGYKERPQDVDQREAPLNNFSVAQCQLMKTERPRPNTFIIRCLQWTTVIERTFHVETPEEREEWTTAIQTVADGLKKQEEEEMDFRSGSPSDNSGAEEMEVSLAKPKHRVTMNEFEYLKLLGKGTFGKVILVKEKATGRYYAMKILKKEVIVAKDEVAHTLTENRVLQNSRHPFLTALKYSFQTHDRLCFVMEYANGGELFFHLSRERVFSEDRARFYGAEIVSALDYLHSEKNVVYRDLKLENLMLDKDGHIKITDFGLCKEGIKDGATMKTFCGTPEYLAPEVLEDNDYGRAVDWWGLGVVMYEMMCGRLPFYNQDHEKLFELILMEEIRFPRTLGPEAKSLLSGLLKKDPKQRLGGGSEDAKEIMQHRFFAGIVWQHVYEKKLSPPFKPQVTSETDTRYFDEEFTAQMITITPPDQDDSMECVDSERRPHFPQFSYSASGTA
# Columns and labels:
# [1] = biological target: Flag-tagged SPT16 (Flag-SPT16), expressed in U251 cells (UniProt Q9Y5B9); experiment: co-IP; U251 cells transfected with Flag-SPT16 or SFB-SSRP1, etoposide (200 x 10^-6 M) for indicated time; whole-cell lysates prepared without sonication
# [2] = biological target: SFB-SSRP1 WT (S peptide-flag-streptavidin binding peptide-tagged SSRP1), expressed in U251 cells (human) (UniProt Q08945); experiment: as above
# [3] = biological target: HA-SPT16, expressed in HEK293T cells (UniProt Q9Y5B9); experiment: co-IP; HEK293T cells co-transfected with the two tagged proteins, with or without etoposide (200 x 10^-6 M, 1 h); anti-Flag antibody where stated
# [4] = biological target: SFB-SSRP1 WT, expressed in HEK293T cells (human) (UniProt Q08945); experiment: as above
# [5] = biological target: Flag-SPT16, expressed in HEK293T cells (UniProt Q9Y5B9); experiment: as above
# [6] = biological target: SFB-SSRP1 WT, expressed in HEK293T cells (human) (UniProt Q08945); experiment: condition: only precipitated complex treated with CIP; co-IP; as a10, the precipitated complex of SSRP1 or SPT16 then treated with calf-intestinal alkaline phosphatase (CIP)
# [7] = biological target: Flag-SPT16, expressed in HEK293T cells (UniProt Q9Y5B9); experiment: as above
# [8] = biological target: Flag-PKM2 WT, expressed in HEK293T cells (UniProt P14618); experiment: co-IP; HEK293T cells co-transfected with the two tagged proteins, with or without etoposide (200 x 10^-6 M, 1 h); anti-Flag antibody where stated
substance,measurement,setting,value
"PKM2, endogenous in U251 cells (from UniProt P14618 1-531) (enzyme)",binding,[1],binds
same,binding,[2],binds
"Flag-PKM2 WT, expressed in HEK293T cells (from UniProt P14618 1-531) (enzyme)",binding,[3],binds
"HA-PKM2 WT, expressed in HEK293T cells (from UniProt P14618 1-531) (enzyme)",binding,[4],binds
same,binding,[5],binds
same,binding,[6],no binding
same,binding,[7],no binding
"HA-AKT1, expressed in HEK293T cells (from UniProt P31749 1-480) (enzyme)",binding,[8],binds
"HA-PKM2 S222A, expressed in HEK293T cells (from UniProt P14618 1-531) (enzyme)",binding,[4],no binding
"Flag-PKM2 S222A, expressed in HEK293T cells (from UniProt P14618 1-531) (enzyme)",binding,[3],no binding

# Reference: publication PMC8922107
